# Laboratory results as given in PubChem BioAssay AID1460 (National Center for Advancing Translational Sciences (NCATS), 2008).
# About 5,800 (2.1%) of roughly 270,000 compounds were called active. The inconclusive results got no clear call from the source; some entries with a clear call stand among them for comparison. The call rests on the fitted dose curve; in most records, active means well fitted inhibition curve with a large enough effect; inconclusive means small, poorly fitted or top-dose-only effect; inactive means flat fitted curve, though single readings scatter. Where the call is inconclusive, the potency comes from a doubtful curve fit.
# Biological target: Microtubule-associated protein tau (Homo sapiens) (UniProt P10636)
# Experiment: qHTS for Inhibitors of Tau Fibril Formation, Thioflavin T Binding; further: nearly all actives have a fitted effect of over 55% in size
# Details: recombinant tau K18 P301L, heparin-induced fibrillization, ThT fluorescence; series mostly up to 57.4 µM
# Summary of the method: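 Using a mix of unlabeled (15 uM) and Alexa 594-labeled (0.24 uM) tau K18 P301L, heparin-triggered fibrillization over 6 hr at 37 C was scored by ThT fluorescence.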
# Potency means the concentration at half of the fitted maximal effect; tags describe the fitted curve by direction and shape.
# Sequence of UniProt P10636 (P10636 whole entry, looked up): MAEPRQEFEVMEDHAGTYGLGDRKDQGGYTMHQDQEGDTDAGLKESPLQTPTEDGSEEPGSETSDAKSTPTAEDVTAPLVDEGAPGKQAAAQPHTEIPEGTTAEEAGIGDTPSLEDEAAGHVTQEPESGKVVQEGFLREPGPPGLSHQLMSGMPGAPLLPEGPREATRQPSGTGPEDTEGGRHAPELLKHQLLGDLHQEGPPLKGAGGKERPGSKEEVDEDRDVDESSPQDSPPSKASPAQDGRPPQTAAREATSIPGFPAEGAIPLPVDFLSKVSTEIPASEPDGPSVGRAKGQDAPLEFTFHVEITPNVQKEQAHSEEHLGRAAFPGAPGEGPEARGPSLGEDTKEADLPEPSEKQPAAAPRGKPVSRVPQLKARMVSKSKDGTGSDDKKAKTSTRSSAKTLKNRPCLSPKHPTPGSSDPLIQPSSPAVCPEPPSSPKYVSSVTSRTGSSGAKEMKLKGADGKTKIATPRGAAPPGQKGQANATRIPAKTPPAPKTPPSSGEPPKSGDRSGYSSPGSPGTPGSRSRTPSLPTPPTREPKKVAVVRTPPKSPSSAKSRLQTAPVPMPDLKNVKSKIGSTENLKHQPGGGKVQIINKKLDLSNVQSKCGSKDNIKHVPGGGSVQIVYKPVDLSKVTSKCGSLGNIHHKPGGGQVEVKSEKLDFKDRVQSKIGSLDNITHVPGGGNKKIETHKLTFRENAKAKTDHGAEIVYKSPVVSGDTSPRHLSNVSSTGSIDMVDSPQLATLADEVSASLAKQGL
row,SMILES,Potency
1,CCCCOc1c(Cl)cc(C(=O)N(Cc2ccc(C)o2)C2CCS(=O)(=O)C2)cc1Cl (stereo not given),"inconclusive: 12.6 µM [inhibitor, partial curve]"
2,CN(C)CCCN(C(=O)CCSc1ccccc1)c1nc2cc3c(cc2s1)OCO3,"inconclusive: 14.1 µM [inhibitor, partial curve]"
3,CCOc1ccccc1N1CCN(C(=O)CCCc2nc3ccccc3s2)CC1,"inconclusive: 25.1 µM [inhibitor, partial curve]"
4,COc1ccc(C(C)=O)c2c(O)cccc12,"inconclusive: 14.1 µM [inhibitor, partial curve]"
5,CCOC(=O)c1ccc(NC(=O)c2cc3cc(C)ccc3n2C)cc1,"inconclusive: 0.398 µM [inhibitor, full curve, poor fit]"
6,CC1CC(C)(C)NC(=S)N1CCCC(=O)Nc1ccc(Cl)cc1 (stereo not given),inactive
7,COCCN(C(=S)Nc1ccc(C(C)C)cc1)C(C)c1cccs1 (stereo not given),inactive
8,COc1ccc(C2C=C(c3ccccc3)Nc3nc(NC(=O)c4ccc(C)cc4)nn32)cc1 (stereo not given),inactive
9,CN(C)/C=C/C(=O)c1cccc([N+](=O)[O-])c1,"inconclusive: 20 µM [inhibitor, partial curve]"
10,COc1ccc(Cl)cc1NC(=O)Cn1c2ncccc2c(=O)n1-c1ccc(C)c(C)c1,inactive
11,COc1ccc(Cl)cc1C(=O)N1CCN(c2ccccn2)CC1,inactive
12,COc1ccc(-c2ccc3c(N)c(C(=O)NC(C)C)sc3n2)cc1OC,active: 10 µM
13,CCOc1cc(-c2nc(-c3ccc(-c4ccc(C)cc4)nc3OC)no2)cc(OCC)c1OCC,"inconclusive: 0.891 µM [inhibitor, full curve, poor fit]"
14,O=C(Cn1cc(C(F)(F)F)ccc1=O)N/N=C/c1ccccc1O,inactive
15,Cc1cc(O)c(-c2cc(C(=O)Nc3cccnc3)[nH]n2)cc1C,"inconclusive: 0.355 µM [inhibitor, full curve]"
16,COc1ccc(OC)c(C2CC(=O)N3CN(c4ccccc4F)CSC3=C2C#N)c1 (stereo not given),active: 28.2 µM
17,Cc1cccc(-n2ncc3c(N4CC(C)CC(C)C4)ncnc32)c1 (stereo not given),"inconclusive: 11.2 µM [inhibitor, partial curve]"
18,CCOc1ccccc1N(C)C(=O)Cn1cnc2sc(C)c(S(=O)(=O)N3CCC(C)CC3)c2c1=O,"inconclusive: 22.4 µM [inhibitor, partial curve, poor fit]"
19,O=C(CSC1=Nc2ccccc2C2=NC(CC(=O)NCc3ccco3)C(=O)N12)NCc1ccco1 (stereo not given),"inconclusive: 11.2 µM [inhibitor, partial curve]"
20,CCNc1nc(SCCOc2ccccc2)nc(N(C)C)n1,"inconclusive: 14.1 µM [inhibitor, partial curve]"
21,CC(C)N1C/C(=C/c2ccsc2)C(=O)/C(=C/c2ccsc2)C1,"inconclusive: 39.8 µM [inhibitor, single point]"
22,CCCc1nnc(N2C(=O)c3cccc4cccc(c34)C2=O)s1,inactive
23,Cc1nc(N2CCCC2)c2c(C(=O)Nc3cccc(C)c3C)c(C)oc2n1,inactive

row,SMILES,Potency
1,Cc1nc(NC(=O)c2ccc(Br)o2)sc1C,"inconclusive: 25.1 µM [inhibitor, partial curve, poor fit]"
2,O=C(Nc1cccc(Cl)c1)c1c(NC(=O)C(F)(F)F)sc2c1CCCC2,active: 10 µM
3,CCOCCOC(=O)C(C)Oc1ccc(Oc2nc(Cl)ccc2Cl)cc1 (stereo not given),inactive
4,CCOC(=O)c1cnc2sc3c(n2c1=O)CCCC3,"inconclusive: 31.6 µM [inhibitor, single point]"
5,Cc1ccc(Cl)cc1N1CCN(C(=O)CSc2nnc3n2C(C)(C)Cc2ccccc2-3)CC1,"inconclusive: 35.5 µM [inhibitor, single point]"
6,CCn1c(SCC(=O)NCc2ccco2)nnc1-c1cccs1,"inconclusive: 10 µM [inhibitor, partial curve]"
7,COc1cccc(CNCCSc2nnnn2C)c1,inactive
8,O=C(NCCO)C(=O)Nc1c2c(nn1-c1ccc(F)cc1)CSC2,inactive
9,Cn1c(=O)n(C)c2cc(NS(=O)(=O)c3ccccc3)c(NCc3ccccc3)cc21,"inconclusive: 20 µM [inhibitor, partial curve]"
10,Cc1cc(=O)n2[nH]c(N)c(N=Nc3ccccc3)c2n1,"inconclusive: 8.91 µM [inhibitor, partial curve]"
11,CCOC(=O)c1cnn(-c2cc(C)c3ccccc3n2)c1N,"inconclusive: 0.562 µM [inhibitor, full curve]"
12,Cc1cc(CO)nn1-c1ccc([N+](=O)[O-])cc1,"inconclusive: 15.8 µM [inhibitor, partial curve]"
13,CCC(Sc1nnc(C)n2c1cc1occc12)C(=O)Nc1ccccc1F (stereo not given),"inconclusive: 15.8 µM [inhibitor, partial curve]"
14,COc1ccc(Nc2nc3ccccc3nc2C)cc1,"inconclusive: 15.8 µM [inhibitor, partial curve]"
15,NS(=O)(=O)c1ccc(NC(=O)Nc2ccc(C(F)(F)F)cc2)cc1,"inconclusive: 39.8 µM [activator, single point]"
16,Cc1nn(CCCC(=O)Nc2ccccc2C(F)(F)F)c(=O)c2c1sc1ccccc12,"inconclusive: 2.82 µM [inhibitor, full curve]"
17,CC1CN(CC(=O)Nc2cc(S(=O)(=O)N3CCCC3)ccc2Cl)CC(C)O1 (stereo not given),inactive
18,CCOC(=O)C1=C(CSc2nc(C)ccc2C#N)OC(N)=C(C#N)C1c1cccc(OC)c1OC (stereo not given),inactive
19,Cc1cccnc1CN1CCN(C(=O)c2cc(COc3ccc4ncccc4c3)on2)CC1,"inconclusive: 3.16 µM [inhibitor, full curve]"
20,Cc1cn2c(=O)cc(COc3ccc(NC(=O)c4cccc(F)c4)cc3)nc2s1,"inconclusive: 1.58 µM [inhibitor, full curve]"
21,CCCC(=O)Nc1ccc(C(=O)Nc2ccc([N+](=O)[O-])cc2OC)cc1,"inconclusive: 11.2 µM [inhibitor, partial curve]"
22,CN(C)c1ccc(NC(=O)c2cccc(N3C(=O)C4C5C=CC(C5)C4C3=O)c2)cc1 (stereo not given),"inconclusive: 14.1 µM [inhibitor, partial curve]"
